Results as given in article PMC12529666.
Only a part is listed here, and it is no random draw. At the low end of the ranking, values are background and their order means little. This is one part of the list.

Assays:
[1] = molecular target: AGO2 WT (phosphosite mutant background) S387D + S824A + S828D + S831D + S834A (UniProt Q9UKV8); test: RNA Bind-n-Seq (nitrocellulose filter binding and sequencing); conditions: constant regions annealed to DNA blockers; guide miR-122 5' phosphate; 30 mM Tris pH 8.0, 100 mM potassium acetate, 2 mM magnesium acetate, 0.5 mM TCEP, 0.005% NP-40, 0.01 mg/ml yeast tRNA; 3 nM AGO2-miR-122, 100 nM RNA library …; high values mean tight binding
[2] = molecular target: AGO2 F182del S387D + S824A + S828D + S831D + S834A + del182-182 (UniProt Q9UKV8); test: as above; conditions: constant regions annealed to DNA blockers; guide miR-122 5' phosphate; 30 mM Tris pH 8.0, 100 mM potassium acetate, 2 mM magnesium acetate, 0.5 mM TCEP, 0.005% NP-40, 0.01 mg/ml yeast tRNA; 3 nM AGO2-miR-122, 100 nM RNA library …; high values mean tight binding

Sequence | binding signal (fold enrichment over input) [1] | binding signal (fold enrichment over input) [2]
GAGUUCUACAGUCCGACGAUCCCAACGUGCUUCGCACCUGGAAUUCUCGGGUGCCAA / UGGAGUGUGACAAUGGUGUUUG / GATCGTCGGACTGTAGAACTC / TTGGCACCCGAGAATTCCA | 0.127 | 0.066
GAGUUCUACAGUCCGACGAUCCCAACGUACUCUACACCUGGAAUUCUCGGGUGCCAA / UGGAGUGUGACAAUGGUGUUUG / GATCGTCGGACTGTAGAACTC / TTGGCACCCGAGAATTCCA | 0.106 | 0.115
GAGUUCUACAGUCCGACGAUCCCAACGCAUCCCGCACCUGGAAUUCUCGGGUGCCAA / UGGAGUGUGACAAUGGUGUUUG / GATCGTCGGACTGTAGAACTC / TTGGCACCCGAGAATTCCA | 0.094 | 0.0465
GAGUUCUACAGUCCGACGAUCCCAACGCAUCUCGCACCUGGAAUUCUCGGGUGCCAA / UGGAGUGUGACAAUGGUGUUUG / GATCGTCGGACTGTAGAACTC / TTGGCACCCGAGAATTCCA | 0.082 | 0.0373
GAGUUCUACAGUCCGACGAUCCCAACAUGCUUUGCACCUGGAAUUCUCGGGUGCCAA / UGGAGUGUGACAAUGGUGUUUG / GATCGTCGGACTGTAGAACTC / TTGGCACCCGAGAATTCCA | 0.0853 | 0.0347
GAGUUCUACAGUCCGACGAUCCCAACGUACCCCGCACCUGGAAUUCUCGGGUGCCAA / UGGAGUGUGACAAUGGUGUUUG / GATCGTCGGACTGTAGAACTC / TTGGCACCCGAGAATTCCA | 0.0913 | 0.0467
GAGUUCUACAGUCCGACGAUCCCAACAUGUUUUGCACCUGGAAUUCUCGGGUGCCAA / UGGAGUGUGACAAUGGUGUUUG / GATCGTCGGACTGTAGAACTC / TTGGCACCCGAGAATTCCA | 0.0972 | 0.0437
GAGUUCUACAGUCCGACGAUCCCAACACAUUUCACACCUGGAAUUCUCGGGUGCCAA / UGGAGUGUGACAAUGGUGUUUG / GATCGTCGGACTGTAGAACTC / TTGGCACCCGAGAATTCCA | 0.235 | 4.77
GAGUUCUACAGUCCGACGAUCCCAACACGCCUUGCACCUGGAAUUCUCGGGUGCCAA / UGGAGUGUGACAAUGGUGUUUG / GATCGTCGGACTGTAGAACTC / TTGGCACCCGAGAATTCCA | 0.103 | 0.0832
GAGUUCUACAGUCCGACGAUCCCAACGUGUUUUGCACCUGGAAUUCUCGGGUGCCAA / UGGAGUGUGACAAUGGUGUUUG / GATCGTCGGACTGTAGAACTC / TTGGCACCCGAGAATTCCA | 0.0887 | 0.0312
GAGUUCUACAGUCCGACGAUCCCAACAUAUUUCGCACCUGGAAUUCUCGGGUGCCAA / UGGAGUGUGACAAUGGUGUUUG / GATCGTCGGACTGTAGAACTC / TTGGCACCCGAGAATTCCA | 0.0922 | 0.0521
GAGUUCUACAGUCCGACGAUCCCAACGUACUCUGCACCUGGAAUUCUCGGGUGCCAA / UGGAGUGUGACAAUGGUGUUUG / GATCGTCGGACTGTAGAACTC / TTGGCACCCGAGAATTCCA | 0.0838 | 0.0619
GAGUUCUACAGUCCGACGAUCCCAACACAUCCCACACCUGGAAUUCUCGGGUGCCAA / UGGAGUGUGACAAUGGUGUUUG / GATCGTCGGACTGTAGAACTC / TTGGCACCCGAGAATTCCA | 0.154 | 1.11
GAGUUCUACAGUCCGACGAUCCCAACGCGUUCUACACCUGGAAUUCUCGGGUGCCAA / UGGAGUGUGACAAUGGUGUUUG / GATCGTCGGACTGTAGAACTC / TTGGCACCCGAGAATTCCA | 0.104 | 0.0738
GAGUUCUACAGUCCGACGAUCCCAACGCGUUUCGCACCUGGAAUUCUCGGGUGCCAA / UGGAGUGUGACAAUGGUGUUUG / GATCGTCGGACTGTAGAACTC / TTGGCACCCGAGAATTCCA | 0.102 | 0.0359
GAGUUCUACAGUCCGACGAUCCCAACGUGUCCCACACCUGGAAUUCUCGGGUGCCAA / UGGAGUGUGACAAUGGUGUUUG / GATCGTCGGACTGTAGAACTC / TTGGCACCCGAGAATTCCA | 0.125 | 0.268
GAGUUCUACAGUCCGACGAUCCCAACGUACCUCACACCUGGAAUUCUCGGGUGCCAA / UGGAGUGUGACAAUGGUGUUUG / GATCGTCGGACTGTAGAACTC / TTGGCACCCGAGAATTCCA | 0.149 | 1.57
GAGUUCUACAGUCCGACGAUCCCAACACGUUCUGCACCUGGAAUUCUCGGGUGCCAA / UGGAGUGUGACAAUGGUGUUUG / GATCGTCGGACTGTAGAACTC / TTGGCACCCGAGAATTCCA | 0.0882 | 0.0468
GAGUUCUACAGUCCGACGAUCCCAACGCGCUUUACACCUGGAAUUCUCGGGUGCCAA / UGGAGUGUGACAAUGGUGUUUG / GATCGTCGGACTGTAGAACTC / TTGGCACCCGAGAATTCCA | 0.117 | 0.0647
GAGUUCUACAGUCCGACGAUCCCAACAUACUCCGCACCUGGAAUUCUCGGGUGCCAA / UGGAGUGUGACAAUGGUGUUUG / GATCGTCGGACTGTAGAACTC / TTGGCACCCGAGAATTCCA | 0.401 | 3.65

Sequence | binding signal (fold enrichment over input) [1] | binding signal (fold enrichment over input) [2]
GAGUUCUACAGUCCGACGAUCCCAACGUAUUUUACACCUGGAAUUCUCGGGUGCCAA / UGGAGUGUGACAAUGGUGUUUG / GATCGTCGGACTGTAGAACTC / TTGGCACCCGAGAATTCCA | 0.109 | 0.0626
GAGUUCUACAGUCCGACGAUCCCAACGUGUUCUGCACCUGGAAUUCUCGGGUGCCAA / UGGAGUGUGACAAUGGUGUUUG / GATCGTCGGACTGTAGAACTC / TTGGCACCCGAGAATTCCA | 0.0929 | 0.0348
GAGUUCUACAGUCCGACGAUCCCAACACGUCCUACACCUGGAAUUCUCGGGUGCCAA / UGGAGUGUGACAAUGGUGUUUG / GATCGTCGGACTGTAGAACTC / TTGGCACCCGAGAATTCCA | 0.106 | 0.187
GAGUUCUACAGUCCGACGAUCCCAACGCGUUCUGCACCUGGAAUUCUCGGGUGCCAA / UGGAGUGUGACAAUGGUGUUUG / GATCGTCGGACTGTAGAACTC / TTGGCACCCGAGAATTCCA | 0.0976 | 0.0373
GAGUUCUACAGUCCGACGAUCCCAACAUACUUUACACCUGGAAUUCUCGGGUGCCAA / UGGAGUGUGACAAUGGUGUUUG / GATCGTCGGACTGTAGAACTC / TTGGCACCCGAGAATTCCA | 0.121 | 0.0803
GAGUUCUACAGUCCGACGAUCCCAACACACUUCGCACCUGGAAUUCUCGGGUGCCAA / UGGAGUGUGACAAUGGUGUUUG / GATCGTCGGACTGTAGAACTC / TTGGCACCCGAGAATTCCA | 0.11 | 0.152
GAGUUCUACAGUCCGACGAUCCCAACACACCUUGCACCUGGAAUUCUCGGGUGCCAA / UGGAGUGUGACAAUGGUGUUUG / GATCGTCGGACTGTAGAACTC / TTGGCACCCGAGAATTCCA | 0.105 | 0.318
GAGUUCUACAGUCCGACGAUCCCAACACACUUUGCACCUGGAAUUCUCGGGUGCCAA / UGGAGUGUGACAAUGGUGUUUG / GATCGTCGGACTGTAGAACTC / TTGGCACCCGAGAATTCCA | 0.0944 | 0.0793
GAGUUCUACAGUCCGACGAUCCCAACGCGCCUCGCACCUGGAAUUCUCGGGUGCCAA / UGGAGUGUGACAAUGGUGUUUG / GATCGTCGGACTGTAGAACTC / TTGGCACCCGAGAATTCCA | 0.107 | 0.0466
GAGUUCUACAGUCCGACGAUCCCAACGUAUCCCGCACCUGGAAUUCUCGGGUGCCAA / UGGAGUGUGACAAUGGUGUUUG / GATCGTCGGACTGTAGAACTC / TTGGCACCCGAGAATTCCA | 0.083 | 0.0503
GAGUUCUACAGUCCGACGAUCCCAACACGCCCUACACCUGGAAUUCUCGGGUGCCAA / UGGAGUGUGACAAUGGUGUUUG / GATCGTCGGACTGTAGAACTC / TTGGCACCCGAGAATTCCA | 0.107 | 0.0852
GAGUUCUACAGUCCGACGAUCCCAACGUACCUUACACCUGGAAUUCUCGGGUGCCAA / UGGAGUGUGACAAUGGUGUUUG / GATCGTCGGACTGTAGAACTC / TTGGCACCCGAGAATTCCA | 0.108 | 0.0874
GAGUUCUACAGUCCGACGAUCCCAACGCGUCUCGCACCUGGAAUUCUCGGGUGCCAA / UGGAGUGUGACAAUGGUGUUUG / GATCGTCGGACTGTAGAACTC / TTGGCACCCGAGAATTCCA | 0.0967 | 0.0394
GAGUUCUACAGUCCGACGAUCCCAACACACCCUACACCUGGAAUUCUCGGGUGCCAA / UGGAGUGUGACAAUGGUGUUUG / GATCGTCGGACTGTAGAACTC / TTGGCACCCGAGAATTCCA | 0.142 | 0.799
GAGUUCUACAGUCCGACGAUCCCAACGUGUUUCGCACCUGGAAUUCUCGGGUGCCAA / UGGAGUGUGACAAUGGUGUUUG / GATCGTCGGACTGTAGAACTC / TTGGCACCCGAGAATTCCA | 0.0901 | 0.0375
GAGUUCUACAGUCCGACGAUCCCAACGCACUCCACACCUGGAAUUCUCGGGUGCCAA / UGGAGUGUGACAAUGGUGUUUG / GATCGTCGGACTGTAGAACTC / TTGGCACCCGAGAATTCCA | 117 | 91.6
GAGUUCUACAGUCCGACGAUCCCAACGUACUUUACACCUGGAAUUCUCGGGUGCCAA / UGGAGUGUGACAAUGGUGUUUG / GATCGTCGGACTGTAGAACTC / TTGGCACCCGAGAATTCCA | 0.112 | 0.0693
GAGUUCUACAGUCCGACGAUCCCAACGCAUUCUACACCUGGAAUUCUCGGGUGCCAA / UGGAGUGUGACAAUGGUGUUUG / GATCGTCGGACTGTAGAACTC / TTGGCACCCGAGAATTCCA | 0.106 | 0.114
GAGUUCUACAGUCCGACGAUCCCAACGUGCCCCGCACCUGGAAUUCUCGGGUGCCAA / UGGAGUGUGACAAUGGUGUUUG / GATCGTCGGACTGTAGAACTC / TTGGCACCCGAGAATTCCA | 0.102 | 0.0427
